Test results reported in PubChem BioAssay AID1963872 (Molecular Pharmacology Branch, DTP, NCI, 2024).
Some entries of the source have several records that differ or are many. The other results are left out here. There may be further records. Values given together repeat one measurement (runs, samples, wells, individuals or studies).

Test system: KRAS patient-derived spheroids with HUVEC/MSC, viability
Assay: Anticancer human tumor 519858-162-T-J1-PDC patient-derived colon adenocarcinoma cell line growth inhibition [KRAS2]
Conditions: for viability, T/C: stronger effect = lower value
Source text: Multicellular complex tumor spheroid response to RAS pathway inhibitors in combination with a targeted agents in patient-derived cell lines with oncogenic KRAS variants from multiple cancer types
A high-throughput screen of multi-cell type tumor spheroids was designed to identify active combinations of targeted small molecules and KRAS pathway inhibitors. Complex spheroids include a stromal component modeled by human endothelial cells (HUVEC) and fibroblasts modeled by human mesenchymal stem cells (MSCs). The concentration ranges selected for each drug and investigational agent were based upon clinically achievable concentrations if the clinical Cmax of the agent was known.
Compounds. The drugs and investigational agents: BI-3406 (NSC825286), BAY-293 (NSC824723), batoprotafib (TNO155; NSC825523), sotorasib (AMG 510; NSC818433), MRTX1257 (NSC819558), elimusertib (BAY 1895344; NSC800525), molibresib (GSK525762; NSC774829), temuterkib (LY3214996; NSC803410), venetoclax (NSC766270), alisertib (NSC759677), olaparib (NSC753686), talazoparib (NSC767125), erdafitinib (NSC781556), ipatasertib (NSC767898), cabozantinib (NSC761068), nintedanib (NSC756659), abemaciclib (NSC768073), docetaxel (NSC628503), trametinib (NSC758246), and sapanisertib (NSC764658) were obtained from the National Cancer Institute (NCI) Developmental Therapeutics Program Chemical Repository. The FDA-approved anticancer drug set is available from the Developmental Therapeutics Program. […] The stock solutions were prepared in dimethyl sulfoxide (DMSO, Sigma-Aldrich, St. Louis, MO, cat. D2650) at 800-fold the tested concentration and stored at -70 degrees C prior to their use. All drugs and investigational agents were tested over a range starting from a high concentration at or near the clinical Cmax and decreasing in half-log increments. If the clinical Cmax for an agent had not been determined, the highest concentration tested was 10 microM.
Cell Culture. All cells were maintained in an incubator at 37 degrees C and 5% CO2 with 95% humidity. The PDC lines were cultured according to standard operating procedures established by the NCI PDMR (https://pdmr.cancer.gov/sops/default.htm). Briefly, all PDCs were thawed and cultured in Matrigel-coated flasks prepared with a working solution of 1X Ham's F-12 nutrient mix, without supplementation (Invitrogen, Waltham, MA, cat. 11765054), 100 U/mL penicillin-streptomycin (Invitrogen, cat. 15140122), and 2.5% Matrigel (Corning Inc., Corning, NY, cat. 354248) for the first three passages. All PDCs were cultured in complete DMEM/F-12 media containing advanced DMEM/F-12 (Invitrogen, cat. 12634028), 4.9% defined fetal bovine serum, heat inactivated (HyClone Laboratories Inc., Logan, UT, cat. SH30070.03HI), 389 ng/mL hydrocortisone (Sigma-Aldrich, cat. H4001), 9.7 ng/mL human EGF recombinant protein (Invitrogen, cat. PHG0313), 23.4 microg/mL adenine (Sigma-Aldrich, cat. A2786), 97.3 U/mL penicillin-streptomycin (Invitrogen, cat. 15140122), 1.9 mM L-glutamine (Invitrogen, cat. 25030081), and 9.7 microM Y-27632 dihydrochloride (Tocris Bioscience, Bristol, United Kingdom, cat. 1254). The PDCs were cultured in complete DMEM/F12 media without 9.7 microM Y-27632 dihydrochloride for at least two passages prior to the screen. The established cell line HOP-62 was cultured in RPMI 1640 medium, HEPES (Invitrogen, cat. 22400105) with 10% defined fetal bovine serum (HyClone Laboratories Inc., cat. SH30070.03) and 2 mM L-glutamine (Invitrogen, cat. 25030081). The pooled donor HUVEC were cultured in endothelial cell growth medium 2 (PromoCell, Heidelberg, Germany, cat. C-22011) and the hMSC were cultured in mesenchymal stem cell growth medium 2 (PromoCell, cat. C-28009). For all experiments, HUVEC and hMSC were used at passages </=5, while the malignant cell lines were used at passages </=15. […]
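Also: compound exposure lasted seven days before readout.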
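For viability, T/C in this document: 100% = DMSO vehicle control viability.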

## C=CC(=O)N1CCN(c2nc(OCC3CCCN3C)nc3c2CCN(c2cccc4cccc(C)c24)C3)CC1CC#N (stereo unspecified)
Compound alone 0.0316 µM
  viability, T/C: 122, 96.5, 79.7, 98.5, 66.6, 103, 84, 95.5, 94.9, 58.5, 93.1, 101, 96.2, 73.6, 76.1, 81.2, 84.2%
Compound alone 0.1 µM
  viability, T/C: 93.5, 77.2, 98.4, 77.4, 69.9, 85.3, 73.7, 85.8, 78.2, 97.3, 76.2, 85, 88.5, 66.4, 90, 76.1, 105%
Compound alone 0.316 µM
  viability, T/C: 75.5, 96.7, 108, 89.8, 67.3, 100, 105, 85.2, 67.9, 66.1, 72.1, 71.5, 89.2, 64.1, 81.8, 66.3, 86.7%
Compound alone 1 µM
  viability, T/C: 78.2, 95.4, 84.7, 69.5, 53.2, 90.9, 55.8, 91.9, 82.4, 82.6, 65, 71.2, 75.2, 87.1, 84.4, 83.6, 72.2%
Compound alone 3.16 µM
  viability, T/C: 83.8, 98.9, 84.4, 54.5, 65.2, 81.6, 76.7, 56.2, 68.4, 61.4, 66.5, 74.4, 67.2, 39.6, 55.5, 70.8, 75%

## COc1cc(OC)cc(N(CCNC(C)C)c2ccc3ncc(-c4cnn(C)c4)nc3c2)c1
Compound alone
  IC50: > 10 µM and 722 nM
Compound alone 0.0316 µM
  viability, T/C: 92.9, 93.1, 72.4, 88, 98.9%
Compound alone 0.1 µM
  viability, T/C: 71.9, 106, 61.7, 95.5, 111%
Compound alone 0.316 µM
  viability, T/C: 93.5, 87.1, 74.3, 103, 105%
Compound alone 1 µM
  viability, T/C: 82.1, 115, 95.1, 20.7, 80.8%
Compound alone 3.16 µM
  viability, T/C: 99.5, 96.6, 123, 53.8, 106%
Compound alone 10 µM
  viability, T/C: 71.4, 69.3, 57, 21.8, 85.2%

## Cn1ncnc1[C@H]1c2n[nH]c(=O)c3cc(F)cc(c23)N[C@@H]1c1ccc(F)cc1
Compound alone 0.000316 µM
  viability, T/C: 96.2, 78, 98.2, 78.3, 108%
Compound alone 0.001 µM
  viability, T/C: 102, 77.9, 80.7, 82.1, 111%
Compound alone 0.0316 µM
  viability, T/C: 88.1, 78.2, 86.4, 77.2, 106%
Compound alone 0.1 µM
  viability, T/C: 72.3, 65, 96.2, 91.3, 90.4%
